In patent US20240076343A1 (CEPHALON, published 2024):
Substitutions are numbered along the chain they refer to. In names and notes the source's numbering stands. Each block holds one binder with its values, some of them ahead of it.

What was measured:
[1] = target: T1, high-affinity hIL-2 receptor (IL-2Rαβγ) on NK-92 cells (human, UniProt P01589 22-272; P14784 27-551; P31785 23-369); test: cell-based or functional assay
T1 sequence 1: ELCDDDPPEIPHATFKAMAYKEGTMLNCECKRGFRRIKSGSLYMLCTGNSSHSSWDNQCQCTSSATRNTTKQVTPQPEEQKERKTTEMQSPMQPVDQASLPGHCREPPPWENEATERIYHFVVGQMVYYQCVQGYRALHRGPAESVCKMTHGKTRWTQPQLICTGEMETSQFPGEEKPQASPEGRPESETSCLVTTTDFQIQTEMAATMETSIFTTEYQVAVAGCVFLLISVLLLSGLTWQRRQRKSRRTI
T1 sequence 2: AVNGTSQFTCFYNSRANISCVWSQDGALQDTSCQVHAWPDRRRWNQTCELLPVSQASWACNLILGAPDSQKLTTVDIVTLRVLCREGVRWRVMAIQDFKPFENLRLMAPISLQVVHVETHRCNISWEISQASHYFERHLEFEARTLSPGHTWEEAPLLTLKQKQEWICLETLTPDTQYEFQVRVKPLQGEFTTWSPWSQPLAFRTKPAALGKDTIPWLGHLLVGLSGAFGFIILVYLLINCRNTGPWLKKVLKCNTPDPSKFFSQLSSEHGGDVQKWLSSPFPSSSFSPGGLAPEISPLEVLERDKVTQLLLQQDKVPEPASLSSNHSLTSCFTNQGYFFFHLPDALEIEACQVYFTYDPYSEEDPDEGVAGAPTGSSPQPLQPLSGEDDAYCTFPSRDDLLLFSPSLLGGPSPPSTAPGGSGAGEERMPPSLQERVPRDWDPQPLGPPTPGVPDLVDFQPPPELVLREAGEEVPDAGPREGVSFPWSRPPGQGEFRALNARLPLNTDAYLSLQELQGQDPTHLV
T1 sequence 3: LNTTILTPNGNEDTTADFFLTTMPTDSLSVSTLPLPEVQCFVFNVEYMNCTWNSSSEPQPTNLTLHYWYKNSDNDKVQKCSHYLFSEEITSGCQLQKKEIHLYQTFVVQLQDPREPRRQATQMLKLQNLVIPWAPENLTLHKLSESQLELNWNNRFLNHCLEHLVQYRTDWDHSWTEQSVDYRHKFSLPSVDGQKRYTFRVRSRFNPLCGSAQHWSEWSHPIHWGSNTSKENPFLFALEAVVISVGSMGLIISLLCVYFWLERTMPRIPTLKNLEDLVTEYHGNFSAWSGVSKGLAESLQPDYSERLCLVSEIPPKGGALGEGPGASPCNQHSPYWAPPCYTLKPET

[2] = target: T2, intermediate-affinity hIL-2 receptor (IL-2Rβγ) on TF1+IL-2Rβ cells (human, UniProt P14784 27-551; P31785 23-369); test: cell-based or functional assay
T2 sequence 1: T1 sequence 2
T2 sequence 2: T1 sequence 3

[3] = target: T2, intermediate-affinity hIL-2 receptor …; test: cell-based or functional assay; remark: listed apart in the source
[4] = target: T3, recombinant His-tagged human PD-1 (Acro Biosystems) (human, UniProt Q15116 part only); test: SPR Carterra LSA;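 note: antibodies or fusion proteins amine-coupled on an HC30M chip, soluble His-tagged human or cynomolgus PD-1 titrated over them, non-regenerative kinetics, constants fitted from titration curves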
T3 construct: His-tagged; also called hPD-1

[5] = target: T4, recombinant His-tagged cynomolgus PD-1 (Acro Biosystems) (cynomolgus, UniProt B0LAJ3 25-170); test: SPR Carterra LSA;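 note: antibodies or fusion proteins amine-coupled on an HC30M chip, soluble His-tagged human or cynomolgus PD-1 titrated over them, non-regenerative kinetics, constants fitted from titration curves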
T4 construct: His-tagged; also called Cyno PD-1; not shown: His tag (and any linker) of the Acro Biosystems product
T4 sequence (B0LAJ3 entry or part of it limits assumed): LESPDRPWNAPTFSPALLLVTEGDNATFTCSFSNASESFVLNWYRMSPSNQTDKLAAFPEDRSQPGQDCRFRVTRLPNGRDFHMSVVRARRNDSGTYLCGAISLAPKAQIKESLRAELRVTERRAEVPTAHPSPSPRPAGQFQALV

[6] = target: T5, human PD-1 (amino acids 1-185) on transfected Jurkat cells (human, UniProt Q15116 part only); test: flow cytometry, Jurkat+hPD-1 cells
T5 construct: also called hPD-1; Jurkat+hPD-1 cell line

Fold change from rhIL-2 (NK-92) [1]: 8570 fold
Fold change from rhIL-2 (TF1 + IL-2Rβ) [2]: ~3360 fold
Fold decrease from rhIL-2 (TF1 + IL-2Rβ + hPD-1) [3]: ~5 fold
B2: A2-hIgG4-df-hIL-2 (F42Q/I92D) (other)
heavy: DVQLVESGGGLVQPGGSLRLSCAASGFTFDISAMSWVRQAPGKGLEWVSTISGSAYSTYYADSVKGRFTISRDNSKSTLYLQMNSLRAEDTAVYYCAREIFSDYWGLGTLVTVSSASTKGPSVFPLAPCSRSTSESTAALGCLVKDYFPEPVTVSWNSGALTSGVHTFPAVLQSSGLYSLSSVVTVPSSSLGTKTYTCNVDHKPSNTKVDKRV[not shown - about 350 residues with a human IgG4 Fc and changes]
light: QSVLTQPPSASGTPGQRVTISCSGSTSNIGRESVYWYQQLPGTAPKLLIYSNVQRPSGAPNRFSGSKSGTSASLAISGLQSEDEADYYCGTWDDSLNGWVFGGGTKLTVLGQPKAAPSVTLFPPSSEELQANKATLVCLISDFYPGAVTVAWKADSSPVKAGVETTTPSKQSNNKYAASSYLSLTPEQWKSHRSYSCQVTHEGSTVEKTVAPTECS

Fold change from rhIL-2 (NK-92) [1]: 2180 fold
Fold change from rhIL-2 (TF1 + IL-2Rβ) [2]: ~5650 fold
Fold decrease from rhIL-2 (TF1 + IL-2Rβ + hPD-1) [3]: ~1 fold
B4: A2-hIgG4-df-hIL-2 (F42T/I92D) (other)
heavy: DVQLVESGGGLVQPGGSLRLSCAASGFTFDISAMSWVRQAPGKGLEWVSTISGSAYSTYYADSVKGRFTISRDNSKSTLYLQMNSLRAEDTAVYYCAREIFSDYWGLGTLVTVSSASTKGPSVFPLAPCSRSTSESTAALGCLVKDYFPEPVTVSWNSGALTSGVHTFPAVLQSSGLYSLSSVVTVPSSSLGTKTYTCNVDHKPSNTKVDKRV[not shown - about 350 residues with a human IgG4 Fc and changes]
light: B2 light

fold increase in EC50 against the anti-hPD-1 antibody without the attenuated hIL-2 moiety [6]: < 2 fold
B6: D12-hIgG4-df-hIL-2 (D20A/R38E) (other)
heavy: DVQLVESGGGLVQPGGSLRLSCAASGFTFDISAMSWVRQAPGKGLEWVSTISGSAYSTYYADSVKGRFTISRDNSKSTLYLQMNSLRAEDTAVYYCAREIFSDYWGLGTLVTVSSASTKGPSVFPLAPCSRSTSESTAALGCLVKDYFPEPVTVSWNSGALTSGVHTFPAVLQSSGLYSLSSVVTVPSSSLGTKTYTCNVDHKPSNTKVDKRV[not shown - about 350 residues with a human IgG4 Fc]
light: B2 light with S25N, A59V, N61D

Kd [4]: 30 nM
koff [4]: 0.0015 s⁻¹
kon [4]: 50000 M⁻¹ s⁻¹
Kd [5]: 321 nM
koff [5]: 0.026 s⁻¹
kon [5]: 80000 M⁻¹ s⁻¹
B7: OMC476pB11-hIgG4 (antibody)
heavy: DVQLVESGGGVVRPGESLRLSCTASGFTFSISAMSWVRQAPGKGLEWVSAISGTAYSTYYADSVRGRFTISRDNSKNTLYLQMNSLRAEDTAVYYCAKDNFFDYWGLGTLVTVSSASTKGPSVFPLAPCSRSTSESTAALGCLVKDYFPEPVTVSWNSGALTSGVHTFPAVLQSSGLYSLSSVVTVPSSSLGTKTYTCNVDHKPSNTKVDKRV[not shown - human IgG4 Fc with S228P (EU numbers)]
light: B2 light with L4M, S25V, R31S, E32N, S51L, V53S, A59V, N61D

Continued, binder first:

B1: A2-hIgG4-df-hIL-2 (D20A/F42S) (other)
heavy: DVQLVESGGGLVQPGGSLRLSCAASGFTFDISAMSWVRQAPGKGLEWVSTISGSAYSTYYADSVKGRFTISRDNSKSTLYLQMNSLRAEDTAVYYCAREIFSDYWGLGTLVTVSSASTKGPSVFPLAPCSRSTSESTAALGCLVKDYFPEPVTVSWNSGALTSGVHTFPAVLQSSGLYSLSSVVTVPSSSLGTKTYTCNVDHKPSNTKVDKRV[not shown - about 350 residues with a human IgG4 Fc and changes]
light: B2 light
Fold change from rhIL-2 (NK-92) [1]: 3540 fold
Agonistic Activity (TF1 + IL-2Rβ) [2]: 90%
Fold change from rhIL-2 (TF1 + IL-2Rβ) [2]: ~4050 fold
Fold decrease from rhIL-2 (TF1 + IL-2Rβ + hPD-1) [3]: ~1 fold

B3: OMC476pH7-hIgG4 (antibody)
heavy: B7 heavy with V2M
light: B2 light with L4M, S25V, R31S, E32N, S51L, V53S, A59V, N61D
Kd [4]: 18 nM
koff [4]: 0.0011 s⁻¹
kon [4]: 60000 M⁻¹ s⁻¹
Kd [5]: 221 nM
koff [5]: 0.017 s⁻¹
kon [5]: 78000 M⁻¹ s⁻¹

B5: A2-hIgG4-df-hIL-2 (F42I/I92D) (other)
heavy: DVQLVESGGGLVQPGGSLRLSCAASGFTFDISAMSWVRQAPGKGLEWVSTISGSAYSTYYADSVKGRFTISRDNSKSTLYLQMNSLRAEDTAVYYCAREIFSDYWGLGTLVTVSSASTKGPSVFPLAPCSRSTSESTAALGCLVKDYFPEPVTVSWNSGALTSGVHTFPAVLQSSGLYSLSSVVTVPSSSLGTKTYTCNVDHKPSNTKVDKRV[not shown - about 350 residues with a human IgG4 Fc and changes]
light: B2 light
Fold change from rhIL-2 (NK-92) [1]: 9540 fold
Agonistic Activity (TF1 + IL-2Rβ) [2]: 90%
Fold change from rhIL-2 (TF1 + IL-2Rβ) [2]: ~5610 fold
Fold decrease from rhIL-2 (TF1 + IL-2Rβ + hPD-1) [3]: ~9 fold
